Laboratory results published in ChEMBL document CHEMBL1157539, “Thousands of chemical starting points for antimalarial lead identification” (Nature, 2010).
Over roughly 13,000 compounds, “IFI” has its median near 4; the highest 2% begin near 17. This is one part of the list.

Assay: GSK_TCMDC: Inhibition Frequency Index (IFI). The number of non-kinase HTS assays where a compound showed > 50 % inhibition, expressed as a percentage of the number of such assays in which the compound was tested (-0 is zero)
Type: functional

Structure (SMILES)	IFI [%]
COc1ccc2nccc(N(C)CC3(O)CCC(NCc4cc5c(cn4)OCCO5)CC3)c2n1 (stereo not drawn)	0.72
O=C(Nc1ccc(OC2CCN(Cc3ccsc3)CC2)c(Cl)c1)c1ccc(F)cc1	15.2
COc1cccc(-c2cc(-c3ccc(NC(=O)c4ccccc4)cc3)c3c(N)ncnc3n2)c1	4.17
c1ccc(-c2cc(NCCCCNc3cc(-c4ccccc4)nc4ccccc34)c3ccccc3n2)cc1	3.73
Cc1nn(CC(C)C)c2sc(C(=O)N3CCN(S(=O)(=O)c4ccc(C#N)cc4)CC3)cc12	-0
CCNc1nc(OCC(F)(F)F)nc(N(c2ccccc2)c2ccccc2)n1	2.21
O=C(Nc1cccc(-c2ccc(-c3nc4ccccc4[nH]3)s2)c1)c1ccncc1	6.42
CN1CCN(CC(=O)Nc2ccc(-c3ccc(-c4nc5cc(C(F)(F)F)ccc5[nH]4)s3)cc2)CC1	7.96
Oc1cc(Nc2ccnc3cc(I)ccc23)ccc1F	1.45
CCNc1cc(C(=O)N[C@@H](Cc2ccoc2)[C@H](O)CNC(C)CCCC(C)C)cc(N2CCCCS2(=O)=O)c1 (stereo partly drawn)	3.47
O=C(Nc1nc(-c2cc(F)ccc2F)cs1)c1cncc(Br)c1	-0
O=C(Nc1cccc(-c2nn3ncccc3c2-c2ccnc(Nc3cccnc3)n2)c1)c1c(F)cccc1F	3.6
Cc1nc(C)c(-c2ccc(C(=O)c3ccccc3)cc2)c(O)c1Br	0.75
O=C(C=Cc1cccc(F)c1)NC1CCC(CCN2CCc3ccc(-c4cnccn4)cc3CC2)CC1 (stereo not drawn)	6.72
Fc1ccc2[nH]c(-c3ccc(-c4ccc(CNCC5CCCO5)cc4)s3)nc2c1 (stereo not drawn)	7.92
COc1ccc(NC(=O)Nc2ccc(-c3ccccc3)cc2)cc1Cn1nc(Cl)c(N2CCCNCC2)cc1=O	11
COc1cccc(OC)c1OCCCOc1c(C)nc(N)nc1N	1.45
CN1CCCN(Cc2cccc(-c3ccc(NC(=O)c4cccc(C#N)c4)cc3)c2)CC1	5.94
Cc1ccc(C2CC(=O)CC(c3ccccn3)C2[N+](=O)[O-])cc1 (stereo not drawn)	-0
CC(=O)Nc1cccc(Nc2c3ccccc3nc3ccccc23)c1	7.43
O=[N+]([O-])c1ccc(N/C(=N\c2ccccc2Br)NCCOc2ccccc2)c(O)c1	4.86
CN(C)CCCOC(=O)c1cc2cc(-c3ccccc3)ccc2n1S(=O)(=O)Cc1ccccc1	6.99
Cc1ccc(Nc2nc3cc(N(C)c4ccnc(Nc5cccc(CS(C)(=O)=O)c5)n4)ccc3o2)cc1	2.27
CCN(C)CCCn1c(N(C)C)nc2cc(-n3cnc4cc(-c5ccc(Cl)cc5)sc4c3=O)ccc21	8.66

Structure (SMILES)	IFI [%]
Cc1cc(CNC(c2ccccc2)C2CCC2)cc(C)c1O (stereo not drawn)	0
O=C(Nc1ccc(OC2CCN(Cc3ccc(F)cc3)CC2)c(Cl)c1)c1ccccc1	6.78
Oc1c(CN2CCC(Cc3ccccc3)CC2)cc(Cl)c2cccnc12	18.8
N#CCCN1CCN(Cc2cccc(-c3ccc(-c4nc5cc(C(F)(F)F)ccc5[nH]4)cc3)c2)CC1	7.04
O=C1CC(C(=O)O)CC(=O)N1	0
COc1ccc(-c2cnc(N)nc2N)cc1Cl	1.48
Oc1ccc(-c2ccccc2)cc1CNC1CCCCC1	0.74
CN(Cc1ccc(NC(=O)CCC2CCN(C(=O)/C=C/c3ccc(Cl)c(Cl)c3)CC2)cc1)C1CCOCC1	2.99
COC(=O)c1cccc(OCCNC2CCN(C[C@H](O)c3ccnc4ccc(OC)cc34)CC2)c1	2.92
CC(Cc1ccc(CN2CCN(Cc3ccccc3)CC2)cc1)NCC(O)c1cccc(C(F)(F)F)c1 (stereo not drawn)	9.15
CC(=O)Nc1cccc(C(=O)Nc2ccc(-c3cccc(-c4nc5cc(C(F)(F)F)ccc5[nH]4)c3)cc2)c1	4.42
COc1ccc(NC(=O)/C=C/c2ccccc2Cl)cc1OCCN1CCC(Cc2cc3ccccc3[nH]2)CC1	5.04
NC(=O)c1cccc(Nc2nccc(Nc3ccc(Oc4cccc5ccccc45)cc3)n2)c1	5.76
COc1ccc(Br)cc1C1C2C(=O)N(c3ccc(Br)cc3)C(=O)C2C2(C(=O)O)CC(OCc3ccccc3)CN12 (stereo not drawn)	-0
CN1CCC(N2CCN(Cc3ccc(-c4ccc(-c5nc6ccccc6[nH]5)s4)cc3)CC2)CC1	5.63
Cc1ccc(S(C)(=O)=O)cc1/C=C/C(=O)O	-0
CC(C)C[C@@H](/C=N/N1CCOC1=O)NC(=O)[C@H](CC(C)C)NC(=O)c1ccc(OCCN2CCOCC2)cc1	7.27
O=C(Nc1cccc(-c2ccc(-c3nc4ccccc4[nH]3)cc2)c1)c1csnn1	4.5
CC(C)(C)c1ccc(-c2csc(NC(=O)CC(c3ccccc3)c3ccccc3)n2)cc1	0
COC(=O)c1cc(/C(C)=N/Nc2nc3ccccc3[nH]2)ccc1O	1.48
CCOc1ncccc1CN1CCC(N2CCc3cc(NC(=O)c4cc(C)on4)ccc32)C1 (stereo not drawn)	-0
CC(C)(C)c1nn(-c2ccc(Cl)cc2)c2[nH]c(=O)c(CNCc3ccc4c(c3)OCO4)cc12	7.96
OCCN1CCN(C2Cc3ccc(F)cc3Sc3ccc(Cl)cc32)CC1 (stereo not drawn)	2.31
O=C(CN(c1cccc(C(F)(F)F)c1)S(=O)(=O)c1ccc(Cl)cc1)NCCC(c1ccccc1)c1ccccc1	4

Structure (SMILES)	IFI [%]
CC1CN(Cc2ccc(-c3ccc(-c4nc5cc(F)ccc5[nH]4)cc3)cc2)CC(C)O1 (stereo not drawn)	12.5
CCc1cn2c3c(cc(C(=O)N[C@@H](Cc4ccccc4)[C@H](O)CNC4CCOCC4)cc13)N(C(C)C)S(=O)(=O)CC2	2.19
Nc1nc(N)c2c(ccc3c2ccn3CCCC(F)(F)F)n1	5.56
CCN(CCNC(=O)Nc1cc(C(F)(F)F)cc(C(F)(F)F)c1)c1cccc(C)c1	11.9
Cc1[nH]c2ccc(-c3ccc(N(C)C)cc3)cc2c(=O)c1Cl	0.92
CN(C)C(CNC(=O)c1cc(-c2ccncc2)c(-c2ccc(Cl)c(O)c2)o1)c1ccccc1 (stereo not drawn)	0.76
Fc1ccc2[nH]c(-c3cccc(-c4cccc(CNCc5ccccc5)c4)c3)nc2c1	6.73
COc1ccc(CCN2CC[C@H](CNc3nc(-c4ccccc4)nc4ccccc34)C2)cc1S(N)(=O)=O	1.55
CCCC(C)NC(=O)[C@H]1CNCCN1C(=O)CCCc1ccccc1 (stereo partly drawn)	-0
CN(C)c1ccc(C=Cc2ccc3ccccc3n2)c(Cl)c1	12.3
Clc1ccc(CCNCCCCCCNCCc2ccc3c(c2)OCO3)cc1	3.62
C#CCCC(=O)Nc1cccc(-c2cccc(-c3nc4cccc(C)c4[nH]3)c2)c1	4.55
CCOCn1c(-c2ccccc2)cc2c3c(N)nc(N)nc3ccc21	4.29
C1=CN(Cc2ccccc2)C=CC1=C1C=Nc2ccccc21	2.31
Cc1cc2c3c(N)nc(N)nc3ccc2n1C	5.51
CCCCCN1CCC(NC(=O)c2ccc(C(=O)Nc3ccc(C(C)C)cc3)cc2)CC1	4.35
Cc1cc(C)n2nc(C(=O)Nc3cc(C(F)(F)F)ccc3N3CCOCC3)nc2n1	0.69
CCCCCC(C)N/C(=N/c1cccc(Cl)c1Cl)Nc1ccc(C#N)cc1O (stereo not drawn)	6.43
CC(C)[C@H](NC(=O)c1ccc(O)c(-c2ccc(Cl)c(Cl)c2)c1)C(=O)NCCN(C)C	0
O=C(Nc1cccc(CN2CCCN(Cc3ccsc3)CC2)c1)c1cc2ccccc2s1	7.33
COc1ccc(C(=O)Nc2ccc(-c3ccc([N+](=O)[O-])cc3)cc2)cc1CCCN(C)C	2.34
Nc1nc(N)c2c(ccc3[nH]ccc32)n1	2.84
O=[N+]([O-])c1cccc(CNC2CCN(Cc3ccc(C(F)(F)F)cc3)CC2)c1	1.41
COc1ccccc1NC(=O)Nc1ccc(-c2ccc(-c3nc4cccc(C)c4[nH]3)s2)cc1	6

Structure (SMILES)	IFI [%]
Cc1nc(N)nc(N)c1OCc1cccc2c1ccc1ccccc12	1.44
CC[C@H](C)CNC(=O)c1cccc(-c2cccc(CNCC3CNCCCO3)c2)n1 (stereo partly drawn)	10.3
NC(=O)c1cccc(C(=O)Nc2cccc(-c3cccc(-c4nc5cc(C(F)(F)F)ccc5[nH]4)c3)c2)c1	5.77
Cc1ccc(Nc2nc(C)cc(NC3CCCC3)n2)cc1	21.3
Oc1ccc2ccccc2c1C=NNc1nc(=Nc2ccccc2)nc(N2CCOCC2)[nH]1	3.68
Cc1[nH]c2ccccc2c1C1CCN(CCCCNC(=O)c2ccc(-c3ccc(C#N)cc3)cc2)CC1	0.93
COc1ccc(-c2ccc(NC(=O)c3cccc(Cl)c3)c(F)c2)cc1CNC(C)C	6.06
COc1ccc2nccc([C@@H](O)CN3CCC(NCC(O)Cc4ccccc4)CC3)c2c1 (stereo partly drawn)	1.48
CCCN1CCN(CCCNC(=O)c2cc3c(-c4ccc(Cl)cc4)nn(C)c3s2)CC1	6.12
Cc1cc(N[C@@H](Cc2ccccc2)C(=O)Nc2ccccc2)nc(NCCc2ccc(F)cc2)n1	6.82
COc1ccc(NC(=O)c2ccc(-c3nc(-c4ccc(Cl)cc4)cs3)cc2)cc1N1CCN(C)CC1	6.42
CN(C)CCCNCc1ccc(-c2ccc(F)c(Cl)c2)o1	6.94
O=C(/C=C/c1ccc(Cl)c(Cl)c1)NC1CCC(CN2CCC(c3nc4cccnc4[nH]3)CC2)CC1 (stereo not drawn)	4.96
O=C(NCc1ccco1)c1ccc(CN2CCN(C(c3ccccc3)c3ccccc3)CC2)cc1	2.14
Cc1noc(C)c1-c1ccc2c(Nc3ccc(Cl)cc3)c(C(N)=O)cnc2c1	4.07
COc1ccc(CNCc2ccsc2)cc1-c1ccc(S(=O)(=O)NCCN2CCCC2)s1	9.26
COc1ccc(OC)c(Cc2c(C)nc3nc(N)nc(N)c3c2C)c1	1.46
CN(C)c1ccc(/C=C2\S/C(=N\c3ccccc3)N(c3ccccc3)C2=O)cc1[N+](=O)[O-]	0.77
CC(=O)Nc1cccc(C(=O)Nc2cccc(-c3cccc(-c4nc5ccccc5[nH]4)c3)c2)c1	7.14
COc1ccccc1-c1cc(C(=O)N2CCN(S(=O)(=O)c3ccc(C)cc3)CC2)[nH]n1	7.02
CCCCNCc1cc(Cl)c2ccccc2c1O	6.77
